Data taken from patent US20230117831.

Biological target: BRD4 (Example 3, construct not stated), O60885

B1: Abl kinase (protein)
chain: MLEICLKLVGCKSKKGLSSSSSCYLEEALQRPVASDFEPQGLSEAARWNSKENLLAGPSE[about 60 residues cut from this listing]LEKHSWYHGPVSRNAAEYLLSSGINGSFLVRESESSPGQRSISLRYEGRVYHYRINTASDGKLYVSSESRFNTLAELVHHHSTVADGLITTLHYPAPKRNKPTVYGVSPNYDKWEMERTDITMKHKLGGGQYGEVYEGVWKKYSLTVAVKTLKEDTMEVEEFLKEAAVMKEIKHPNLVQLLGVCTREPPFYIITEFMTYGNLLDYLRECNRQEVNAVVLLYMATQISSAMEYLEKKNFIHRDLAARNCLVGENHLVKVADFGLSRLMTGDTYTAHAGAKFPIKWTAPESLAYNKFSIKSDVWAFGVLLWEIATYGMSPYPGIDLSQVYELLEKDYRMERPEGCPEKVYELMRACWQWNPSDRPSFAEIHQAFETMFQESSISDEVEKELGKQGVRGAVSTLLQAPELPTKTRTSRRAAEHRDTTDVPEMPHSKGQGESDPLDHEPAVSPLLPRKERGPPEGGLNEDERLLPKDKKTNLFSALIKKKKKTAPTPPKRSSSFREMDGQPERRGAGEEEGRDISNGALAFTPLDTADPAKSPKPSNGAGVPNGALRESGGSGFRSPHLWKKSSTLTSSRLATGEEEGGGSSSKRFLRSCSASCVPHGAKDTEWRSVTLPRDLQSTGRQFDSSTFGGHKSEKPALPRKRAGENRSDQVTRGTVTPPPRLVKKNEEAADEVFKDIMESSPGSSPPNLTPKPLRRQVTVAPASGLPHKEEAGKGSALGTPAAAEPVTPTSKAGSGAPGGTSKGPAEESRVRRHKHSSESPGRDKGKLSRLKPAPPPPPAASAGKAGGKPSQSPSQEAAGEAVLGAKTKATSLVDAVNSDAAKPSQPGEGLKKPVLPATPKPQSAKPSGTPISPAPVPSTLPSASSALAGDQPSSTAFIPLISTRVSLRKTRQPPERIASGAITKGVVLDSTEALCLAISRNSEQMASHSAVLEAGKNLYTFCVSYVDSIQQMRNKFAFREAINKLENNLRELQICPATAGSGPAATQDFSKLLSSVKEISDIVQR
BRD4 phosphorylation by Abl in vitro (thio-ATP, anti-thiophosphate ester antibody): more polar linker with an average length PHICS 10.3 showed the highest level of phosphorylation
